40 molecules from PubChem BioAssay (NCATS) can be followed below.

The AC50 is the midpoint of the concentration-response curve, whichever way the signal moves.

The other results are listed elsewhere or left out. The main result of the screen is listed elsewhere. These columns were measured beside it and carry no call. Most of these compounds were active or inconclusive in the main read-out, so they are no random draw. Words in brackets tell the shape of the fitted curve; partial curves, single points and poor fits give uncertain potencies.
Tags give direction and shape of the fitted curve.

The first test can be described thus: qHTS Assay for Lipid Storage Modulators (AID 1519). Conditions: Drosophila S3 cells, BODIPY lipid droplet/cell ratio, laser cytometry; measured here: cell count channel max response; cells loaded with oleic acid. Summed up:
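Cells seeded at 5,000 per well were treated with compounds over a concentration series and loaded with oleic acid (400 uM, as added). Lipid droplet fluorescence (488 nm excitation, 500-530 nm channel) was read by laser-scanning cytometry and normalized to 20 uM Triacsin C.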
In general terms: In qHTS, concentration-response curves come from the screen itself.
Regarding `COc1cccc(Nc2ncc3nc(-c4cc(F)cc(F)c4)c(=O)n(C4CC4)c3n2)c1`, the max response amounted to 33.1%.

Take `CNc1ncncc1-c1ccccc1CN(C)C`: the max response was 36.5%.

As to `CN(Cc1ccco1)c1ncnc2ccc(-c3ccccc3C#N)cc12`, the max response was 29.4%.

`C=CC(C)(O)CCCC(C)CCCC(C)CCCC(C)C` (stereo not given): the max response worked out at 66.4%.

For the molecule `COc1ccc2c(=O)c(-c3ccccc3)coc2c1`, the max response is 94.1%.

On to `N#Cc1cccc(-c2cncnc2NCc2cccnc2)c1`, for which the max response was determined as 55.4%.

`COc1ccccc1CNc1nc(-c2ccc3c(c2)OCO3)nc2ccccc12`: the max response amounted to 24.7%.

For the molecule `CS(=O)(=O)Nc1cccc(-c2cncnc2NCc2cccnc2)c1`, the max response turned out to be 32.4%.

With `OC(CN1CCC(Cc2ccc(F)cc2)CC1)c1ccc(Cl)cc1` (stereo not given), the max response turned out to be 26.4%.

As for `Cc1noc(C)c1-c1nc(Nc2ccc(F)cc2)c2ccccc2n1`, the max response was 32.5%.

Regarding `COc1cccc(-c2cncnc2NCc2cccnc2)c1`, the max response was 45.2%.

As to `CCNc1ncc2nc(-c3ccccc3)c(=O)n(CCc3ccccc3)c2n1`, the max response is 25%.

For `CC(=O)NCCNc1nc(-c2ccc3c(c2)OCO3)nc2ccccc12`, the max response came out at 36.9%.

Take `CCCn1c(=O)c2[nH]c(-c3ccccc3)nc2n(CCC)c1=O`: the max response stood at 76.6%.

For `COc1ccc(C(=O)N2CCC3(CC2)CN(c2cccc(-c4ccccc4)c2)C3)cc1`, the max response is 11.5%.

As for `COc1cccc(-c2nccc(NCc3ccccc3OC)n2)c1`, the max response came out at 16.2%.

Turning to `COCCn1c(=O)c(-c2ccc(OC)cc2)nc2cnc(Oc3ccc(OC)cc3)nc21`, the max response was -2.47%.

For the molecule `COc1ccc(Oc2ncc3nc(CCc4ccccc4)c(=O)n(C4CC4)c3n2)cc1`, the max response was 17.8%.

Turning to `CN(C)c1nc(-c2cccc(C#N)c2)nc2ccccc12`, the max response amounted to 20.1%.

For the molecule `CCCCC(=O)NCCc1c(Cc2ccccc2)[nH]c2ccccc12`, the max response was determined as 63.3%.

As to `COc1ccc2[nH]cc(CCNc3ncncc3-c3ccccc3C)c2c1`, the max response amounted to 9.6%.

Consider `COc1ccc(-c2nc3cnc(N4CCOCC4)nc3n(Cc3cccs3)c2=O)cc1`, for which the max response was 26.6%.

Take `C=CC(C)(C)c1[nH]c2ccccc2c1C1=C(O)C(=O)C(c2c[nH]c3c(CC=C(C)C)cccc23)=C(O)C1=O`: the max response stood at 60.4%.

On to `COc1cc(/C=C\c2ccc(OC)cc2OC)cc(OC)c1`, for which the max response is 85.4%.

In the case of `COCC(=O)N1CCC2(CC1)CCN(c1ccc(-c3ccccc3)cc1)CC2`, the max response was 13.3%.

`COc1ccc(-c2nc3cnc(OC)nc3n(Cc3cccs3)c2=O)cc1`: the max response was 37.6%.

On to `COc1ccc(/C=C/C(=O)c2cccs2)cc1OC`, for which the max response amounted to 54.9%.

As for `Nc1nc2c(c(=O)[nH]1)N=C(CNc1ccc(C(=O)NC(CCC(=O)O)C(=O)O)cc1)CN2` (stereo not given), the max response turned out to be 40.2%.

Consider `CCNc1ncc2nc(-c3ccc(Cl)cc3)c(=O)n(Cc3cccs3)c2n1`, for which the max response was 24.5%.

As for `Cc1noc(C)c1-c1nc(NC2CC2)c2ccccc2n1`, the max response was 24.1%.

With `Cc1cnc(CNc2ncncc2-c2ccccc2Cl)cn1`, the max response was 31.9%.

As for `N#Cc1cccc(-c2cncnc2NCc2ccccc2)c1`, the max response came to 26.3%.

Consider `COCCn1c(=O)cnc2cnc(N3CCNCC3)nc21`, for which the max response worked out at 18.3%.

As to `CN(C)c1ccc(-c2cncnc2NCc2cccnc2)cc1`, the max response came to 20.9%.

Regarding `COc1ccc(-c2oc3cc(OC)c(OC(C)=O)c(OC)c3c(=O)c2OC)cc1OC(C)=O`, the max response amounted to 61%.

Turning to `CN(C)c1ncc2nc(CCc3ccccc3)c(=O)n(CCc3ccccc3)c2n1`, the max response came to 14.6%.

With `COc1ccc(Cl)cc1N=Nc1ncc[nH]1`, the max response was determined as 113%.

Regarding `COCCn1c(=O)c(CCc2ccccc2)nc2cnc(Oc3ccccc3)nc21`, the max response turned out to be 30.6%.

In the case of `COc1ccc(NC(=O)N2CC3(CCN(S(=O)(=O)c4ccccc4)CC3)C2)cc1`, the max response came to 84.5%.

Consider `COc1ccc(-n2c(=O)c(-c3ccc(F)c(F)c3)nc3cncnc32)cc1`, for which the max response turned out to be 36.5%.

Staying with this test, now noted: Drosophila S3 cells, BODIPY lipid droplet/cell ratio, laser cytometry; measured here: cell number channel AC50; cells loaded with oleic acid.
As for `COc1cccc(Nc2ncc3nc(-c4cc(F)cc(F)c4)c(=O)n(C4CC4)c3n2)c1`, the AC50 was 0.355 µM [rising, partial curve, poor fit].

Take `CNc1ncncc1-c1ccccc1CN(C)C`: the AC50 was 1.58 µM [rising, full curve, poor fit].

As to `CN(Cc1ccco1)c1ncnc2ccc(-c3ccccc3C#N)cc12`, the AC50 is 0.891 µM [rising, full curve, poor fit].

For `C=CC(C)(O)CCCC(C)CCCC(C)CCCC(C)C` (stereo not given), the AC50 is 15.8 µM [rising, partial curve, poor fit].

Consider `COc1ccc2c(=O)c(-c3ccccc3)coc2c1`, for which the AC50 was 6.31 µM [rising, partial curve].

Consider `N#Cc1cccc(-c2cncnc2NCc2cccnc2)c1`, for which the AC50 is 14.1 µM [rising, partial curve, poor fit].

For the molecule `COc1ccccc1CNc1nc(-c2ccc3c(c2)OCO3)nc2ccccc12`, the AC50 was 0.0447 µM [rising, full curve].

On to `CS(=O)(=O)Nc1cccc(-c2cncnc2NCc2cccnc2)c1`, for which the AC50 is 14.1 µM [rising, partial curve, poor fit].

In the case of `OC(CN1CCC(Cc2ccc(F)cc2)CC1)c1ccc(Cl)cc1` (stereo not given), the AC50 was 11.2 µM [falling, partial curve, poor fit].

For `Cc1noc(C)c1-c1nc(Nc2ccc(F)cc2)c2ccccc2n1`, the AC50 was 0.355 µM [rising, full curve].

In the case of `COc1cccc(-c2cncnc2NCc2cccnc2)c1`, the AC50 is 0.794 µM [rising, full curve].

Regarding `CCNc1ncc2nc(-c3ccccc3)c(=O)n(CCc3ccccc3)c2n1`, the AC50 was 0.0447 µM [rising, full curve, poor fit].

On to `CC(=O)NCCNc1nc(-c2ccc3c(c2)OCO3)nc2ccccc12`, for which the AC50 is 0.00631 µM [rising, full curve, poor fit].

For `CCCn1c(=O)c2[nH]c(-c3ccccc3)nc2n(CCC)c1=O`, the AC50 was 1.78 µM [rising, full curve, poor fit].

Turning to `COc1ccc(C(=O)N2CCC3(CC2)CN(c2cccc(-c4ccccc4)c2)C3)cc1`, the AC50 was 3.16 µM [rising, single point].

`COc1cccc(-c2nccc(NCc3ccccc3OC)n2)c1`: the AC50 is 1.78 µM [rising, partial curve, poor fit].

As for `COCCn1c(=O)c(-c2ccc(OC)cc2)nc2cnc(Oc3ccc(OC)cc3)nc21`, the AC50 is 1.26 µM [rising, full curve, poor fit].

Regarding `COc1ccc(Oc2ncc3nc(CCc4ccccc4)c(=O)n(C4CC4)c3n2)cc1`, the AC50 was 3.16 µM [rising, partial curve].

As to `CN(C)c1nc(-c2cccc(C#N)c2)nc2ccccc12`, the AC50 was 1.78 µM [rising, partial curve].

Regarding `CCCCC(=O)NCCc1c(Cc2ccccc2)[nH]c2ccccc12`, the AC50 was 1.26 µM [rising, full curve].

Regarding `COc1ccc2[nH]cc(CCNc3ncncc3-c3ccccc3C)c2c1`, the AC50 was 0.708 µM [rising, full curve].

On to `COc1ccc(-c2nc3cnc(N4CCOCC4)nc3n(Cc3cccs3)c2=O)cc1`, for which the AC50 was 2.51 µM [rising, full curve, poor fit].

On to `C=CC(C)(C)c1[nH]c2ccccc2c1C1=C(O)C(=O)C(c2c[nH]c3c(CC=C(C)C)cccc23)=C(O)C1=O`, for which the AC50 was 15.8 µM [rising, partial curve].

As for `COc1cc(/C=C\c2ccc(OC)cc2OC)cc(OC)c1`, the AC50 was 4.47 µM [rising, full curve].

For `COCC(=O)N1CCC2(CC1)CCN(c1ccc(-c3ccccc3)cc1)CC2`, the AC50 is 0.00501 µM [rising, full curve, poor fit].

`COc1ccc(-c2nc3cnc(OC)nc3n(Cc3cccs3)c2=O)cc1`: the AC50 was 5.01 µM [rising, full curve, poor fit].

Turning to `COc1ccc(/C=C/C(=O)c2cccs2)cc1OC`, the AC50 is 2.51 µM [rising, full curve].

With `Nc1nc2c(c(=O)[nH]1)N=C(CNc1ccc(C(=O)NC(CCC(=O)O)C(=O)O)cc1)CN2` (stereo not given), the AC50 is 12.6 µM [rising, partial curve, poor fit].

Consider `CCNc1ncc2nc(-c3ccc(Cl)cc3)c(=O)n(Cc3cccs3)c2n1`, for which the AC50 is 0.891 µM [rising, full curve, poor fit].

Consider `Cc1noc(C)c1-c1nc(NC2CC2)c2ccccc2n1`, for which the AC50 is 0.0447 µM [rising, full curve].

On to `Cc1cnc(CNc2ncncc2-c2ccccc2Cl)cn1`, for which the AC50 was 8.91 µM [rising, partial curve, poor fit].

Turning to `N#Cc1cccc(-c2cncnc2NCc2ccccc2)c1`, the AC50 is 6.31 µM [rising, partial curve, poor fit].

With `COCCn1c(=O)cnc2cnc(N3CCNCC3)nc21`, the AC50 is 5.01 µM [rising, single point].

For `CN(C)c1ccc(-c2cncnc2NCc2cccnc2)cc1`, the AC50 was 0.0282 µM [rising, full curve].

Take `COc1ccc(-c2oc3cc(OC)c(OC(C)=O)c(OC)c3c(=O)c2OC)cc1OC(C)=O`: the AC50 was 2.51 µM [rising, full curve].

Regarding `CN(C)c1ncc2nc(CCc3ccccc3)c(=O)n(CCc3ccccc3)c2n1`, the AC50 was 2 µM [rising, partial curve, poor fit].

Take `COc1ccc(Cl)cc1N=Nc1ncc[nH]1`: the AC50 is 1 µM [rising, full curve].

Take `COCCn1c(=O)c(CCc2ccccc2)nc2cnc(Oc3ccccc3)nc21`: the AC50 is 2.24 µM [rising, full curve, poor fit].

With `COc1ccc(NC(=O)N2CC3(CCN(S(=O)(=O)c4ccccc4)CC3)C2)cc1`, the AC50 was 39.8 µM [rising, single point].

Regarding `COc1ccc(-n2c(=O)c(-c3ccc(F)c(F)c3)nc3cncnc32)cc1`, the half-maximal activity concentration (AC50) is 1.26 µM [rising, full curve, poor fit].
